Publication PMC4336329 (PLoS ONE, 2015)
Screen size: about 310,000 compounds; about 2,200 (0.71%) showed an effect of 50% or more. Effects have a minus sign here. The list shows a part of the results.

These compounds were tested against human ether-à-go-go-related gene (hERG) potassium channel (human, UniProt Q12809) (assay: primary screen, population patch clamp on CHO cells stably expressing hERG).
Sequence of human ether-à-go-go-related gene (hERG) potassium channel (Q12809 whole entry, looked up): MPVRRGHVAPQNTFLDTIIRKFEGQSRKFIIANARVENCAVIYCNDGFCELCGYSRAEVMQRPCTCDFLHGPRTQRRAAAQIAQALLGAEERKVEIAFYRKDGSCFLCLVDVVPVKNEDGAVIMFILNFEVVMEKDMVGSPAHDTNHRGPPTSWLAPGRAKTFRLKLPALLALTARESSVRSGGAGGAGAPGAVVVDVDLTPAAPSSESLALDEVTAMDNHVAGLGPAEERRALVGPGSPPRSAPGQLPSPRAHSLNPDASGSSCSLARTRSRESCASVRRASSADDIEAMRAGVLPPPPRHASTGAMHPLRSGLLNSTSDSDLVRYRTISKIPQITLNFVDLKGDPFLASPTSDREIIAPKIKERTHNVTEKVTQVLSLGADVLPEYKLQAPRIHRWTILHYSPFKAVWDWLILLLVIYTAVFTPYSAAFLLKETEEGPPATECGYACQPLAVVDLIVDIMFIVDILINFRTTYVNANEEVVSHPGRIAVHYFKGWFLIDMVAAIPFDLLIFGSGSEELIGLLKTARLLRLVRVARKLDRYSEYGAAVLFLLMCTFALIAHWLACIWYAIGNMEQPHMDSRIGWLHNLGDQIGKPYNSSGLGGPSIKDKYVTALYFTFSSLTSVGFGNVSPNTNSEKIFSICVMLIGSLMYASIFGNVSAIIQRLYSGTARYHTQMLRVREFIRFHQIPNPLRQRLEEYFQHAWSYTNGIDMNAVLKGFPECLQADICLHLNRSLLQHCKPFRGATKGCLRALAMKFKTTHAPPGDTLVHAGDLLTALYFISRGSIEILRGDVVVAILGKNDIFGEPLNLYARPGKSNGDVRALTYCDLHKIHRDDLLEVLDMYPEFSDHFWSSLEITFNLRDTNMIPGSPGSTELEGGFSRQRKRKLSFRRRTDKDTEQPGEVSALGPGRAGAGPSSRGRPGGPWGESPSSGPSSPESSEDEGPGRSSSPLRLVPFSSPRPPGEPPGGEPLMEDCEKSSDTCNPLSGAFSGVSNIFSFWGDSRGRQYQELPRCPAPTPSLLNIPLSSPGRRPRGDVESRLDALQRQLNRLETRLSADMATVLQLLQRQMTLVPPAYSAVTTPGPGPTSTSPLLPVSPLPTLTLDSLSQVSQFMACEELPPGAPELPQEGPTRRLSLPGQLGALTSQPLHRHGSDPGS

SMILES | hERG current change (%, negative = inhibition) at 1uM [%]
CC(C)(Cc1ccc(O)cc1)NC(=O)CC(=O)N=Nc1c(O)[nH]c2cc(Br)ccc12 | 1.28
O=S(=O)(c1cccc(-c2nnc(-c3cccnc3)o2)c1)N1CCCCC1 | 1.89
COc1ccccc1NC(=O)CSc1nnc(Cc2cccs2)n1C | 17.6
O=C(NCc1ccc2c(c1)OCO2)C1CCCN(S(=O)(=O)c2cccs2)C1 (centres unmarked) | 8.27
CCOC(=O)c1cnc(SCC(=O)Nc2cc(OC)ccc2OC)nc1N | 14
O=C(NCC1CCCO1)C1CCN(S(=O)(=O)c2cccc3nonc23)CC1 (centres unmarked) | 9.16
CS(=O)(=O)Nc1ccc(S(=O)(=O)N2CCCC2)cc1 | 2.14
C=CCc1c(C)nc2c(OC)cccc2c1Cl | 0.675
CN(Cc1ccc(F)cc1)C(=O)c1cccc(NS(=O)(=O)c2ccccc2)c1 | 12.6
CSc1nsc(/C=C/Nc2ccc(C)c(C)c2)c1C#N | 6.29
COc1cccc(C(=O)NNC(=O)c2ccccc2Br)c1 | 8.48
CN(C)c1ccc(C(=O)OCC(=O)NCCC2=CCCCC2)cc1 | 11.2
c1ccc(-n2c(-c3ccco3)nnc2-c2ccco2)cc1 | 5.9
CCCCN(CC)Cc1ccc(CNC(=S)Nc2ccccc2F)o1 | 6.6
CCN(CC)S(=O)(=O)c1ccc(C(=O)NCc2ccc3c(c2)cc(C)n3C)cc1 | 15.2
Cc1ccccc1CC(=O)NCCN1CCCCC1 | 11.7
Cc1ccccc1C1C(=O)c2ccccc2C1=O | 17.2
Cc1ccc(C(=O)NCCNC(=O)c2cnccn2)cc1 | 11.5
Cc1cnn(C(=O)c2cc(-c3ccccn3)nc3ccc(Cl)cc23)c1 | 12.9
Cc1ccc(Sc2ccc(NC(=O)CCl)cc2)cc1C | 4.79
C=CCn1c(Cc2nc3ccc(Cl)cc3[nH]2)n[nH]c1=S | 13.4
Cc1ccc(NC(=O)COC(=O)c2ccc(Cl)nc2)cc1S(=O)(=O)N1CCCCC1 | 13.9
CC(C)(C)c1ccc(S(=O)(=O)NCC2CCCO2)cc1 (centres unmarked) | 8.44
CC(=O)N1CCCSC1=Nc1ccccc1 | 10.6
COc1ccc(Cl)cc1NC(=O)CSc1nnc(-c2ccncc2)n1CC1CCCO1 (centres unmarked) | -6.14
Cc1ccc2c(c1)C(c1ccccc1)N(C(=O)c1cc3ccccc3oc1=O)CC(=O)N2 (centres unmarked) | 1.48
